Measurements taken from paper PMC4336329 (PLoS ONE, 2015).
About 14,000 (4.5%) of roughly 310,000 compounds showed an effect of 50% or more. The effect is printed as a negative number. The list shows a part of the results.

These compounds were tested against human ether-à-go-go-related gene (hERG) potassium channel (human, UniProt Q12809) (assay: primary screen, population patch clamp on CHO cells stably expressing hERG).
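Further: peak tail current of the secondary pulse compared with the same well before compound.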

Chain of human ether-à-go-go-related gene (hERG) potassium channel (Q12809 whole entry, looked up): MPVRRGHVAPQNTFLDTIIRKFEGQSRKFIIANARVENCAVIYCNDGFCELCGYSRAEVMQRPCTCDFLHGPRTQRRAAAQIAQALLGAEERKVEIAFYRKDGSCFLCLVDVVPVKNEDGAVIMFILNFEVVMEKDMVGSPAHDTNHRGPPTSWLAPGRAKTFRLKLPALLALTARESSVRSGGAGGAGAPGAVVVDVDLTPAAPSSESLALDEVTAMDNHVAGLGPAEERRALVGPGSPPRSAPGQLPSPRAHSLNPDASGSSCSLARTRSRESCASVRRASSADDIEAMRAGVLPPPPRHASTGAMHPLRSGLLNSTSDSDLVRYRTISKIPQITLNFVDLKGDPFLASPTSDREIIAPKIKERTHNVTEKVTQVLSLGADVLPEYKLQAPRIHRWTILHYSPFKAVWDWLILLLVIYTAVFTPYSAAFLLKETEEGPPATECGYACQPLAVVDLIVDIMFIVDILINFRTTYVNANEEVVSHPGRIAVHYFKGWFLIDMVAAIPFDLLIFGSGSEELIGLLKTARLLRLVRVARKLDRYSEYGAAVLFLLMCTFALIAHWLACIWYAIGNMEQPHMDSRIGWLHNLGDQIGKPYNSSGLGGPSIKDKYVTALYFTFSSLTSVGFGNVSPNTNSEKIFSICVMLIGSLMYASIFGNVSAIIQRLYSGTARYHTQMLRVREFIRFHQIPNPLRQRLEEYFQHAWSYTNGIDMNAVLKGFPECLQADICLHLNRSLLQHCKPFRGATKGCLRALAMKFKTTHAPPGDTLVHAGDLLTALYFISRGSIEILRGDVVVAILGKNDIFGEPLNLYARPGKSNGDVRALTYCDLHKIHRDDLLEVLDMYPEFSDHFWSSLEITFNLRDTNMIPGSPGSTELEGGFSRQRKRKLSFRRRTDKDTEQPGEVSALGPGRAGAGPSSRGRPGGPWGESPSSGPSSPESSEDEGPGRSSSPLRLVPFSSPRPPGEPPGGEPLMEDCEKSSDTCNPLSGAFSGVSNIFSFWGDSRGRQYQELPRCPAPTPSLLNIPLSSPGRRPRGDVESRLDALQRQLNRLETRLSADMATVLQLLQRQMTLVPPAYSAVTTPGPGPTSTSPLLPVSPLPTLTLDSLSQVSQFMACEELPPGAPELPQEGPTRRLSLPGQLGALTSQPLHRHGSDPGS

Compound	hERG current change (%, negative = inhibition) at 10uM
CC(=O)C1=C(C)NC(C)=C(C(C)=O)C1c1cn(-c2ccccc2)nc1-c1cccs1	-5.87%
CCOC(=O)COc1ccc2c(c1)C(=O)CC1(CCN(C(C)=O)CC1)O2	-19.7%
O=C(Nc1cccnc1)c1ccc2c(c1)C(=O)N(CC1CCCO1)C2=O (stereo not shown)	5.42%
Cc1ccc(S(=O)(=O)NC(C)C(=O)Nc2ccccc2C(=O)N2CCCC2)cc1 (stereo not shown)	5.61%
COc1ccccc1-n1cc(C(=O)c2cc(Cl)ccc2O)cc(C#N)c1=O	11.6%
CCOc1ccc2c(c1)C(N(CCN1CCOCC1)C(=O)Nc1ccc(OC)cc1OC)CC(C)(C)O2 (stereo not shown)	-51.9%
CCOC(=O)C(=O)Nc1ccccc1C(=O)OCC	2.86%
N#C/C(=C\c1cc2c(cc1Br)OCO2)c1ccc(C(=O)O)cc1	13.2%
Cc1nn2c(-c3ccccc3)ccnc2c1-c1ccccc1	10.7%
O=C(CCN1C(=O)C2C3C=CC(C3)C2C1=O)Nc1nccs1 (stereo not shown)	7.84%
Cl.ON=C1c2cc(OCCN3CCCCC3)ccc2-c2ccc(OCCN3CCCCC3)cc21	-58.1%
Cc1cccc(C)c1OCC(=O)Nc1cccc(S(=O)(=O)N2CCCC2)c1	3.77%
CCN1CCN(CC(=O)Nc2ccc(C)cc2C)C(=O)C1=O	11.8%
O=C(CN1C(=O)c2ccc([N+](=O)[O-])cc2C1=O)NCC1CCCO1 (stereo not shown)	7.33%
COc1ccccc1C1CCN(C(=O)c2cccc([N+](=O)[O-])c2)CC1	-21.8%
Cc1ccccc1N1CCN(C2CCCN(C(=O)CCC3(C)CC3)C2)CC1 (stereo not shown)	-48.6%
CCOC(=O)C(NS(=O)(=O)c1ccccc1)(C(F)(F)F)P(=O)(OCC(C)C)OCC(C)C (stereo not shown)	6.91%
O=C(NCc1ccc2c(c1)OCO2)c1ccc(CN2CCOCC2)cc1	15.3%
CCS(=O)(=O)c1nc(NC(C)=O)n[nH]1	10%
N#Cc1cc2c(N)c(C(=O)Nc3ccccc3)sc2nc1N	8.83%
CC(C)CCN1CCN(Cc2ccon2)CC1CCO (stereo not shown)	4.53%
Cc1nnc(SCCn2c(Br)nc3c2c(=O)n(C)c(=O)n3C)s1	-5.67%

Compound	hERG current change (%, negative = inhibition) at 10uM
O=[N+]([O-])c1ccc(-c2cc(-c3ccc(Cl)cc3)n[nH]2)cc1	-4.49%
Cc1cc(NC(=O)CSc2nnc(-c3cccs3)n2N)no1	20.1%
Cc1ccccc1NC(=S)NNc1ncc(C(F)(F)F)cc1Cl	12%
O=C(Nc1ccccc1Br)C1CCCN1S(=O)(=O)c1cccc2nsnc12 (stereo not shown)	-5.19%
Cc1cccc(N2C(=O)/C(=C/c3cccnc3)SC2=S)c1	4.09%
COc1cc2c(=O)n(CCC(=O)NCC3CCCO3)c(=O)n(CC(=O)c3ccc(Cl)cc3)c2cc1OC (stereo not shown)	-20.4%
COC(=O)[C@@H](NC(=O)Nc1ccc(OC(F)(F)F)cc1)C(C)C	7.62%
CCCc1nc([N+](=O)[O-])c(S(=O)(=O)c2ccccc2)n1CC(C)C	-11.6%
CN1C[C@H](C(=O)N[C@]2(C)O[C@@]3(O)[C@@H]4CCCN4C(=O)[C@H](Cc4ccccc4)N3C2=O)CC2c3cccc4[nH]cc(c34)C[C@H]21.CS(=O)(=O)O (stereo partly shown)	-8.73%
O=C(c1cc2cc([N+](=O)[O-])ccc2oc1=O)n1cccn1	2.07%
OC(COc1ccc2ccccc2c1Br)Cn1ccnc1 (stereo not shown)	-22.5%
Cc1ccc(NC(=O)c2cccnc2C(=O)O)nc1	23.5%
Cc1cc(=O)[nH]c(SCCOc2ccc(OC(C)C)cc2)n1	-4.17%
O=C(CN1CCCCC1)Nc1ccccc1NC(=O)CN1CCCCC1	3.83%
OC(CNCCc1ccc(Cl)cc1)COc1cc(Cl)ccc1Cl (stereo not shown)	-56.6%
Cc1noc(C)c1C(=O)Nc1cccc(S(=O)(=O)N2CCCCC2)c1	-10.6%
CC(C)COc1ccc(C(=O)N(Cc2ccco2)C2CCS(=O)(=O)C2)cc1 (stereo not shown)	-20.8%
O=C(CSc1ncccn1)N1CCc2ccccc2C1	5.19%
Cc1ccc(NC(=O)COc2cccc(C)c2C)cc1S(=O)(=O)N1CCCCCC1	-31.3%
CCC(C(=O)NCc1ccc(OC)cc1)n1nc(C)n2c(cc3occc32)c1=O (stereo not shown)	-12.7%
O=C1c2cccc3c(Nc4ccccc4Cl)c([N+](=O)[O-])cc(c23)C(=O)N1CCO	-22.8%
C/C(=N/NS(=O)(=O)c1cccc([N+](=O)[O-])c1)c1c[nH]c2ccccc12	13%

Compound	hERG current change (%, negative = inhibition) at 10uM
ONC(=Nc1cccc(C(F)(F)F)c1)c1cccnc1	-8.43%
O=C(NC(c1ccccc1)c1ccccc1)C1CCCN(S(=O)(=O)c2cnc[nH]2)C1 (stereo not shown)	11%
CC(=O)Nc1ccc(NC(=O)Cn2cnc(S(=O)(=O)N3CCOCC3)c2)cc1	10.8%
CCC(C)C(NC(N)=O)C(=O)Nc1ccc(OCc2ccccc2)cc1 (stereo not shown)	15.4%
CCOc1cccc2cc(C(=O)NCc3ccccc3Cl)c(=O)oc12	11.2%
Cc1cc(NC(=O)c2ccc(S(=O)(=O)N(C)CC3CCCO3)cc2)no1 (stereo not shown)	2.09%
O=c1oc2ccccc2cc1-c1csc(Nc2nc3ccc(F)cc3s2)n1	4.43%
O=C(NNC(=O)c1sc2cccc(Cl)c2c1Cl)Nc1ccccc1	10.2%
CCC(C)C(=O)N1CCc2cc(-c3csc(N)n3)ccc21 (stereo not shown)	12.1%
COc1cccc(NC(=O)CN(c2ccc([N+](=O)[O-])cc2)S(=O)(=O)c2ccccc2)c1	-5.69%
Cc1cccc(Nc2nccc(N(C)C)c2C#N)c1	10%
O=c1cc(-c2c(O)c3ccccc3n(Cc3ccccc3)c2=O)[nH][nH]1	20.6%
CCCCCc1ccc(-c2ccc(OC)cc2)nc1	19.7%
Cc1ccsc1C(=O)NCCc1nnc2ccccn12	18.9%
COc1cccc(NC(=O)C(Sc2nnc(Nc3ccccc3C)s2)c2ccccc2)c1 (stereo not shown)	1.76%
CCOC(=O)c1sc(NC(=O)c2ccccc2C(=O)O)c(C(=O)OCC)c1C	-1.78%
Cc1ccc(S(=O)(=O)N2C(=O)C(C)SC2=Nc2ccccc2)cc1 (stereo not shown)	9.44%
Cn1cc(S(=O)(=O)N2CCCC2)cc1C(=O)NCc1ccccc1Cl	-18.4%
Cc1cc(C)n(CC(C)O)c(=O)c1C#N (stereo not shown)	8.95%
Cc1cccnc1Nc1nc(-c2ccc(O)cc2O)cs1	0.45%
CCCCN(C(=O)CSc1nnc(-c2ccccc2)n1C)c1c(N)n(Cc2ccccc2)c(=O)[nH]c1=O	7.33%
CC1CN=C2C(C(=O)Nc3ccccc3)=C(O)CC(c3ccccc3)N21 (stereo not shown)	-36.2%

Compound	hERG current change (%, negative = inhibition) at 10uM
O=C(c1ccc2oc(CCCc3ccccc3)nc2c1)N1CCCCC1CO (stereo not shown)	1.53%
CC(C)NS(=O)(=O)c1ccc(OCC(=O)Nc2ccc(F)cc2F)cc1	-4.25%
O=C1C2C3C=CC(C3)C2C(=O)N1Cc1ccccc1 (stereo not shown)	0.693%
COc1ccc(C(=O)C(Cc2cc(C(C)=O)ccc2OC)N2CCCC2)cc1 (stereo not shown)	-8.91%
CCCn1c(=O)c(C#N)cn(C2CC2)c1=O	15.3%
CCN(CC(=O)Nc1ccc(NC(C)=O)cc1)C(=O)c1ccc2ccccc2c1	8.97%
COc1ccc(-c2cc(C(=O)NNC(=O)c3csc(N4CCOCC4)n3)c3ccccc3n2)cc1OC	15.5%
COc1ccc(CC(=O)OCC(=O)NC(=O)NC(C)C)cc1	2.19%
CC(OC(=O)Cc1c[nH]c2ccccc12)C(=O)N(C)c1ccccc1 (stereo not shown)	-0.614%
Cc1ccccc1NCC(=O)N/N=C\C=C\c1cccc([N+](=O)[O-])c1	-44.4%
CCOC(=O)c1ncn2c1CN(C)C(=O)c1cc(F)ccc1-2	8.55%
O=C(O)CCN1c2cccc3cccc(c23)S1(=O)=O	7.6%
CCC(C)N1C(=S)SC(C)(C)C1N(O)C(=O)NC1CCCCC1 (stereo not shown)	9.19%
O=C(NC1CCCC1)c1cccc(Cn2cc([N+](=O)[O-])cn2)c1	-32.8%
Oc1cccc(/C=N/NC(=S)NCCN2CCOCC2)c1O	20%
COC(=O)c1c(C)nn(-c2ccccc2)c1-n1cccc1	5.98%
CN(C)C(=O)CNC(=O)C1CCCCC1	3.19%
CCOC(=O)c1ccc(NC(=O)CSCc2ccco2)cc1	17.7%
CCCCCC(=O)NC(=S)Nc1ccc(Cl)cn1	-15%
CCCCn1c(=O)c(CCC(=O)OCC(=O)Nc2ccc(F)c(Cl)c2)nc2ccccc21	0.0727%
COc1ccc(Cc2nc(C(=O)Nc3ccccc3)cs2)cc1	0.282%
N#C/C(=C\c1cccc(O)c1)C(=O)N1CCCCC1	20.6%
